# According to the supplement of paper PMC8512760:
# Counter-ions that a name gives are not always drawn. The list shows a part of the results. Repeats are few or missing, and single values can be far off.
# System: MDA-468
# Experiment: cell viability relative to vehicle (% of vehicle); basal-like triple-negative breast cancer lines; higher = less cytotoxic
# Conditions: 10 µM; 72 h
# 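Also: stably firefly luciferase-GFP labeled cells in 96-well plates, viability read as luciferase photon flux after d-luciferin addition, treated wells normalized to vehicle wells, single-dose high-throughput screen.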
row,Structure (SMILES),cell viability
1,CC(=O)O.NC(N)=NN=Cc1c(Cl)cccc1Cl [Guanabenz Acetate],112
2,CCCCCCCCCCCCCCCCO [1-Hexadecanol],91.2
3,Nc1nc(=O)n(C2CSC(CO)O2)cc1F (stereo not drawn) [Emtricitabine],97.6
4,Cc1nnc(C(C)C)n1C1CC2CCC(C1)N2CCC(NC(=O)C1CCC(F)(F)CC1)c1ccccc1 (stereo not drawn) [Maraviroc],96.4
5,COc1ccccc1OCC(O)CN1CCN(CC(=O)Nc2c(C)cccc2C)CC1.Cl.Cl (stereo not drawn) [Ranolazine 2HCl],96.5
6,CN1CCC(=C2c3ccccc3C=Cc3ccccc32)CC1.Cl [Cyproheptadine hydrochloride],139
7,CN(C)c1ccc(C(=C2C=CC(=[N+](C)C)C=C2)c2ccc(N(C)C)cc2)cc1.[Cl-] [Crystal Violet],29
8,Oc1ccc(OCc2ccccc2)cc1 [Monobenzone],171
9,CCOC(=O)n1ccn(C)c1=S [Carbimazole],107
10,CNC(=O)C(NC(=O)C(CC(C)C)C(O)C(=O)NO)C(C)(C)C (stereo not drawn) [Marimastat],65.2
11,CCN1CCCC1CNC(=O)c1cc(S(=O)(=O)CC)c(N)cc1OC (stereo not drawn) [Amisulpride],101
12,Cl.O=S(=O)(c1cccc2cnccc12)N1CCCNCC1 [Fasudil (HA-1077) HCl],86.4
13,CNCC(O)C(O)C(O)C(O)CO.Cc1c(Nc2ncccc2C(=O)O)cccc1C(F)(F)F [Flunixin Meglumin],108
14,CC1=NS(=O)(=O)c2cc(Cl)ccc2N1 [Diazoxide],121
15,O=C(O)CCNC(=O)c1ccc(/N=N/c2ccc(O)c(C(=O)O)c2)cc1 [Balsalazide],110
16,CC(C)c1cc(C(=O)N2Cc3ccc(CN4CCN(C)CC4)cc3C2)c(O)cc1O,38.1
17,CNC(=C[N+](=O)[O-])NCCSCc1csc(CN(C)C)n1 [Nizatidine],98.8
18,CN1CCN(c2cc3c(cc2F)c(=O)c(C(=O)O)cn3-c2ccc(F)cc2)CC1 [Difloxacin HCl],79.5
19,COc1ccc(C[C@H](N)C(=O)N[C@@H]2[C@H](O)[C@H](n3cnc4c(N(C)C)ncnc43)O[C@@H]2CO)cc1.Cl.Cl [Puromycin dihydrochloride],35.3
20,COc1ccc(CNc2nc(N3CCCC3CO)ncc2C(=O)NCc2ncccn2)cc1Cl (stereo not drawn) [Avanafil],114
21,CC[C@]1(O)C[C@H]2CN(CCc3c([nH]c4ccccc34)[C@@](C(=O)OC)(c3cc4c(cc3OC)N(C=O)[C@H]3[C@@](O)(C(=O)OC)C(OC(C)=O)[C@]5(CC)C=CCN6CC[C@]43C65)C2)C1.O=S(=O)(O)O (stereo partly drawn) [Vincristine],109
22,CC(=O)O[C@H]1C[C@@]2(C)[C@@H](C[C@@H](O)[C@H]3[C@@]4(C)CC[C@@H](O)[C@@H](C)[C@@H]4CC[C@@]32C)/C1=C(\CCC=C(C)C)C(=O)[O-].[Na+] [Fusidic Acid (sodium salt)],111
23,CN1CCN2c3ncccc3Cc3ccccc3C2C1 (stereo not drawn) [Mirtazapine],123
24,COC(=O)Nc1nc2cc(C(=O)c3ccccc3)ccc2[nH]1 [Mebendazole],105
25,NCC1OC(OC2C(N)CC(N)C(OC3OC(CO)C(O)C(N)C3O)C2O)C(N)CC1O (stereo not drawn) [Tobramycin],110
26,CN(C)NN=C1N=CN=C1C(N)=O [Dacarbazine],87.2
27,NCCCC(O)(P(=O)([O-])O)P(=O)(O)O.[Na+] [Alendronate sodium],87.6
28,O=C(O)c1ccc2ccccc2c1O.OCc1cc(C(O)CNCCCCCCOCCCCc2ccccc2)ccc1O (stereo not drawn) [Salmeterol xinafoate],116

# System: SUM-149
# Experiment: as above
# Conditions: 10 µM; 72 h
row,Structure (SMILES),cell viability
1,O=c1cc[nH]c(=O)[nH]1 [Uracil],123
2,O=C([O-])CC(O)CC(O)C=Cc1c(C2CC2)nc2ccccc2c1-c1ccc(F)cc1.O=C([O-])CC(O)CC(O)C=Cc1c(C2CC2)nc2ccccc2c1-c1ccc(F)cc1.[Ca+2] (stereo not drawn) [Pitavastatin Calcium],53.1
3,CN(C)CC(c1ccc(O)cc1)C1(O)CCCCC1.O.O=C(O)CCC(=O)O (stereo not drawn) [Desvenlafaxine Succinate],96.8
4,N#CC1CC2CC2N1C(=O)C(N)C12CC3CC(CC(O)(C3)C1)C2 (stereo not drawn) [Saxagliptin],93.3
5,O=C([O-])c1cc(=O)c2c(OCC(O)COc3cccc4oc(C(=O)[O-])cc(=O)c34)cccc2o1.[Na+].[Na+] [Cromolyn sodium],106
6,CCOC(=O)C1=CC(OC(CC)CC)C(NC(C)=O)C(N)C1 (stereo not drawn) [Oseltamivir],131
7,CC(C)(C)N.CCCC(NC(C)C(=O)N1C(C(=O)O)CC2CCCCC21)C(=O)OCC (stereo not drawn) [Perindopril Erbumine],84.2
8,CC(=O)Nc1ccccc1 [Acetanilide],86.7
9,Cl.O=C1NCC2(CCN(CCc3ccccc3)CC2)O1 [Fenspiride HCl],108
10,CN(C)CCc1c[nH]c2ccc(CC3COC(=O)N3)cc12 (stereo not drawn) [Zolmitriptan],106
11,Cl.NC(CO)C(=O)NNCc1ccc(O)c(O)c1O (stereo not drawn) [Benserazide HCl],101
12,OCC1OC(OC2(CCl)OC(CCl)C(O)C2O)C(O)C(O)C1Cl (stereo not drawn) [Sucralose],103
13,CC(=O)O.NC(N)=NN=Cc1c(Cl)cccc1Cl [Guanabenz Acetate],98.7
14,CCCCCCCCCCCCCCCCO [1-Hexadecanol],109
15,Nc1nc(=O)n(C2CSC(CO)O2)cc1F (stereo not drawn) [Emtricitabine],98.3
16,Cc1nnc(C(C)C)n1C1CC2CCC(C1)N2CCC(NC(=O)C1CCC(F)(F)CC1)c1ccccc1 (stereo not drawn) [Maraviroc],77
17,COc1ccccc1OCC(O)CN1CCN(CC(=O)Nc2c(C)cccc2C)CC1.Cl.Cl (stereo not drawn) [Ranolazine 2HCl],105
18,CN1CCC(=C2c3ccccc3C=Cc3ccccc32)CC1.Cl [Cyproheptadine hydrochloride],85.4
19,CN(C)c1ccc(C(=C2C=CC(=[N+](C)C)C=C2)c2ccc(N(C)C)cc2)cc1.[Cl-] [Crystal Violet],28.9
20,Oc1ccc(OCc2ccccc2)cc1 [Monobenzone],144

row,Structure (SMILES),cell viability
1,CCOC(=O)n1ccn(C)c1=S [Carbimazole],113
2,CNC(=O)C(NC(=O)C(CC(C)C)C(O)C(=O)NO)C(C)(C)C (stereo not drawn) [Marimastat],80.5
3,CCN1CCCC1CNC(=O)c1cc(S(=O)(=O)CC)c(N)cc1OC (stereo not drawn) [Amisulpride],109
4,Cl.O=S(=O)(c1cccc2cnccc12)N1CCCNCC1 [Fasudil (HA-1077) HCl],105
5,CNCC(O)C(O)C(O)C(O)CO.Cc1c(Nc2ncccc2C(=O)O)cccc1C(F)(F)F [Flunixin Meglumin],120
6,CC1=NS(=O)(=O)c2cc(Cl)ccc2N1 [Diazoxide],107
7,O=C(O)CCNC(=O)c1ccc(/N=N/c2ccc(O)c(C(=O)O)c2)cc1 [Balsalazide],111
8,CC(C)c1cc(C(=O)N2Cc3ccc(CN4CCN(C)CC4)cc3C2)c(O)cc1O,56.6
9,CNC(=C[N+](=O)[O-])NCCSCc1csc(CN(C)C)n1 [Nizatidine],105
10,CN1CCN(c2cc3c(cc2F)c(=O)c(C(=O)O)cn3-c2ccc(F)cc2)CC1 [Difloxacin HCl],120
11,COc1ccc(C[C@H](N)C(=O)N[C@@H]2[C@H](O)[C@H](n3cnc4c(N(C)C)ncnc43)O[C@@H]2CO)cc1.Cl.Cl [Puromycin dihydrochloride],29.7
12,COc1ccc(CNc2nc(N3CCCC3CO)ncc2C(=O)NCc2ncccn2)cc1Cl (stereo not drawn) [Avanafil],121
13,CC[C@]1(O)C[C@H]2CN(CCc3c([nH]c4ccccc34)[C@@](C(=O)OC)(c3cc4c(cc3OC)N(C=O)[C@H]3[C@@](O)(C(=O)OC)C(OC(C)=O)[C@]5(CC)C=CCN6CC[C@]43C65)C2)C1.O=S(=O)(O)O (stereo partly drawn) [Vincristine],116
14,CC(=O)O[C@H]1C[C@@]2(C)[C@@H](C[C@@H](O)[C@H]3[C@@]4(C)CC[C@@H](O)[C@@H](C)[C@@H]4CC[C@@]32C)/C1=C(\CCC=C(C)C)C(=O)[O-].[Na+] [Fusidic Acid (sodium salt)],68.9
15,CN1CCN2c3ncccc3Cc3ccccc3C2C1 (stereo not drawn) [Mirtazapine],111
16,COC(=O)Nc1nc2cc(C(=O)c3ccccc3)ccc2[nH]1 [Mebendazole],113
17,NCC1OC(OC2C(N)CC(N)C(OC3OC(CO)C(O)C(N)C3O)C2O)C(N)CC1O (stereo not drawn) [Tobramycin],99.3
18,CN(C)NN=C1N=CN=C1C(N)=O [Dacarbazine],144
19,NCCCC(O)(P(=O)([O-])O)P(=O)(O)O.[Na+] [Alendronate sodium],86.8
20,O=C(O)c1ccc2ccccc2c1O.OCc1cc(C(O)CNCCCCCCOCCCCc2ccccc2)ccc1O (stereo not drawn) [Salmeterol xinafoate],94.7
